According to the supplement of paper PMC12067230:
The data scatter; read single values as rough.

assay: amyloid nucleation score relative to library mode (yeast Sup35 reporter selection) (log enrichment difference); higher = more amyloid nucleation; sequences are the first 22 residues of the Bri2 peptide extended by up to 12 random residues; details: random library (experiment): 1;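 active = nucleation score significantly above 0 at FDR 0.05; inactive = not significantly above 0 or absent from output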
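Also: [psi-pin-] Saccharomyces cerevisiae expressing SupN fusions, induced by 100 µM Cu2SO4, selected 7 d at 30 °C without adenine and uracil, scored by deep sequencing of output versus input.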

Sequence | amyloid nucleation score
EASNCFAIRHFENKFAVETLICLWLAVVSSSMGE | inactive
EASNCFAIRHFENKFAVETLICASAVWSFWLLVN | inactive
EASNCFAIRHFENKFAVETLICRGESYVFAVPCS | inactive
EASNCFAIRHFENKFAVETLICFKPEINKRKNFA | inactive
EASNCFAIRHFENKFAVETLICLHRWKYQGMGRS | 3.96
EASNCFAIRHFENKFAVETLICHVGVLSDGDEVS | inactive
EASNCFAIRHFENKFAVETLICLPKKNALGRDGC | 1.8
EASNCFAIRHFENKFAVETLICQKCGSWV | inactive
EASNCFAIRHFENKFAVETLICGFVHSCLTLCWG | inactive
EASNCFAIRHFENKFAVETLICGHYRNKQWVRGV | inactive
EASNCFAIRHFENKFAVETLICCHTFRNHFCTRM | 4.21
EASNCFAIRHFENKFAVETLICCIVATVGVSAWR | 0.63
EASNCFAIRHFENKFAVETLICFRMWYGSSNIG | inactive
EASNCFAIRHFENKFAVETLICFM | 7.61
EASNCFAIRHFENKFAVETLICPLLQERPGVDVQ | 1.64
EASNCFAIRHFENKFAVETLICLRRFTRFKEVA | inactive
EASNCFAIRHFENKFAVETLICVIKKVNFACLGW | inactive

Sequence | amyloid nucleation score
EASNCFAIRHFENKFAVETLICCKLNIRTTTDDV | 2.95
EASNCFAIRHFENKFAVETLICQCKVPLCMPMLA | inactive
EASNCFAIRHFENKFAVETLICMMRRWSRFMRAG | inactive
EASNCFAIRHFENKFAVETLICVSYFMRLFRHER | 1.8
EASNCFAIRHFENKFAVETLICRWYLELHDYSNM | inactive
EASNCFAIRHFENKFAVETLICVASTSSTLNSVS | inactive
EASNCFAIRHFENKFAVETLICHPLKGWLLIHSE | inactive
EASNCFAIRHFENKFAVETLICCVFREKWAGRLQ | 0.539
EASNCFAIRHFENKFAVETLICLLPCLYMRFVWR | -0.187
EASNCFAIRHFENKFAVETLICQSLTPVRGGPLW | -0.154
EASNCFAIRHFENKFAVETLICFCVGHSWVAVFG | inactive
EASNCFAIRHFENKFAVETLICCPLPLQRHVGGN | 4.36
EASNCFAIRHFENKFAVETLICVNQPRHHEVYTG | inactive
EASNCFAIRHFENKFAVETLICLCMVP | -0.399
EASNCFAIRHFENKFAVETLICRCHGARLVICQA | inactive
EASNCFAIRHFENKFAVETLICALFAVVLTGMPC | inactive

same assay, conditions: random library (experiment): 2

Sequence | amyloid nucleation score
EASNCFAIRHFENKFAVETLICKALYSDCNGEWR | 4.6
EASNCFAIRHFENKFAVETLICFSMDANKREKIC | inactive
EASNCFAIRHFENKFAVETLICLLLSSVLFKVST | inactive
EASNCFAIRHFENKFAVETLICGSLS | 1.48
EASNCFAIRHFENKFAVETLICHSTCCGRTYLTN | 5.67
EASNCFAIRHFENKFAVETLICYPGSIGFGTWHL | 10.1
EASNCFAIRHFENKFAVETLICEKNGRHSTFFSE | inactive
EASNCFAIRHFENKFAVETLICCCCDHFYHVKNV | 6.35
EASNCFAIRHFENKFAVETLICAKYLRI | inactive
EASNCFAIRHFENKFAVETLICVCTSSVYVALWL | inactive
EASNCFAIRHFENKFAVETLICFEQWQ | 1.29
EASNCFAIRHFENKFAVETLICLRLCYTRGRGVI | inactive
EASNCFAIRHFENKFAVETLICPA | inactive
EASNCFAIRHFENKFAVETLICNTLSTHSLAWSG | inactive
EASNCFAIRHFENKFAVETLICCLKFHDIYISFW | 1.31
EASNCFAIRHFENKFAVETLICTFNK | 6.44
EASNCFAIRHFENKFAVETLICHPMTFIKCISKL | inactive
EASNCFAIRHFENKFAVETLICTVLYDSDSEALG | 6.27
EASNCFAIRHFENKFAVETLICWGLIRELRNSWH | inactive
EASNCFAIRHFENKFAVETLICFNRLS | 1.08
EASNCFAIRHFENKFAVETLICHVVKKRLNTYEM | -0.0583
EASNCFAIRHFENKFAVETLICRVVCMRGVHISY | inactive
EASNCFAIRHFENKFAVETLICETGYNITVCRCR | 5.71
EASNCFAIRHFENKFAVETLICCLTFLKKPWFIK | -0.788
EASNCFAIRHFENKFAVETLICLCNVLYVLVC | inactive
EASNCFAIRHFENKFAVETLICTLEDFCFDIMWW | inactive
EASNCFAIRHFENKFAVETLICCDWKIANKLMAR | inactive
EASNCFAIRHFENKFAVETLICFSFITLRCCPDY | 6.29

same assay, conditions: random library (experiment): 3

Sequence | amyloid nucleation score
EASNCFAIRHFENKFAVETLICPEASQPLSLLTG | inactive
EASNCFAIRHFENKFAVETLICGRTNAPDVRHGR | inactive
EASNCFAIRHFENKFAVETLICHKRAHYVWMNC | inactive
EASNCFAIRHFENKFAVETLICGVVPV | inactive
EASNCFAIRHFENKFAVETLICGSTKASAWSGVS | inactive
EASNCFAIRHFENKFAVETLICAYFGMCERKAVS | inactive
EASNCFAIRHFENKFAVETLICMDWQHPV | inactive
EASNCFAIRHFENKFAVETLICISGYNSVRMAGC | inactive
EASNCFAIRHFENKFAVETLICRGPFISCAAGPD | 4.92
EASNCFAIRHFENKFAVETLICDESVNVPRNMDV | inactive
EASNCFAIRHFENKFAVETLICRNGMASAAAVCP | inactive
EASNCFAIRHFENKFAVETLICKMDL | inactive
EASNCFAIRHFENKFAVETLICVRLLSNGVCGVC | inactive
EASNCFAIRHFENKFAVETLICNRKVAGKRGADK | inactive
EASNCFAIRHFENKFAVETLICERRWLLVMLGQG | inactive
EASNCFAIRHFENKFAVETLICIDLECSEGGFSL | 4.11
EASNCFAIRHFENKFAVETLICVDYSSWNCWGQW | 7.95
EASNCFAIRHFENKFAVETLICMGNVYGF | 8.59
EASNCFAIRHFENKFAVETLICVEVELGLAESVP | inactive
EASNCFAIRHFENKFAVETLICGEVHPWDGGPCR | inactive
EASNCFAIRHFENKFAVETLICLAV | inactive
EASNCFAIRHFENKFAVETLICDSSFSKPSVL | inactive
EASNCFAIRHFENKFAVETLICYVAHCIRCVCCV | 0.711
EASNCFAIRHFENKFAVETLICLTGLKLLRPRGF | 0
EASNCFAIRHFENKFAVETLICAYQSRSD | inactive
